In the supplement of paper PMC10126150:
Values marked as one replicate rest on one cluster of the flow cell; about a third of the high ones do not repeat.

Tested on: ATP
Experiment: switch fluorescence ratio, 500 uM ATP over buffer (Cy3 cluster intensity, sum of 5 cycles each) (fold (ratio)); higher = stronger signal-on switching upon ATP binding; sequences stand for … in TCGTCGGCAGCGTCAGATGTGTATAAGAGACAGTTTTTTTTTTTTTTTTTTTTTTTTT…TC
Conditions: aptamer strand: ATP DNA aptamer (quencher-CACCTGGGGGAGTATTGCGGAGGAAGG + anchor), 100 nM annealed; ATP concentration: 500 uM; one replicate
Procedure, shortened: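 After annealing to 100 nM quencher-labelled ATP aptamer, Cy3-labelled switching-strand clusters on a modified Illumina MiSeq flow-cell were imaged in selection buffer. A second image followed after 15 min with 500 uM ATP at 22 °C, and five such buffer/ATP cycles were done, each separated by NaOH stripping and re-annealing. The fluorescence ratio, averaged per switch-domain sequence, is summed target-cycle over summed buffer-cycle Cy3 intensity per cluster, with clusters outside 100-1000 RFU excluded.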
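Also: ATP exposure 15 min at 22 °C before imaging.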

TGGGGGCCAG
switch fluorescence ratio: 0.97

CGGTAATCTG
switch fluorescence ratio: 0.966

GCGTAAGATT
switch fluorescence ratio: 0.965

TAGATTGTGA
switch fluorescence ratio: 0.965

TTTGAAGA
switch fluorescence ratio: 1.01

TCTTGCATGC
switch fluorescence ratio: 1.06

TAGCAACTC
switch fluorescence ratio: 1.71

TAGCGTGGC
switch fluorescence ratio: 0.952

CCGGACTAGA
switch fluorescence ratio: 1.07

GACGTTAACA
switch fluorescence ratio: 1.11

TCGGCTGATC
switch fluorescence ratio: 0.992

CCGGTTCCAC
switch fluorescence ratio: 1.14

TTGATCGCGG
switch fluorescence ratio: 0.938

GGGTATACTA
switch fluorescence ratio: 0.972

ATAAGCCTC
switch fluorescence ratio: 0.998

TTGGGTGCCA
switch fluorescence ratio: 0.995

TTCCCTCCGA
switch fluorescence ratio: 2.93

GCTGTCGTGG
switch fluorescence ratio: 0.998

TCTCTCAATG
switch fluorescence ratio: 1.29

CATTTCGAAG
switch fluorescence ratio: 1.01

TATTGTATTT
switch fluorescence ratio: 1.02

CCGTTACGGG
switch fluorescence ratio: 0.999

TTCATCGCGG
switch fluorescence ratio: 1.04

ACATTTTCAC
switch fluorescence ratio: 1.02

CGCGAGTTGT
switch fluorescence ratio: 1.06

CGATGTCGGA
switch fluorescence ratio: 0.995

AAAAGCCGTT
switch fluorescence ratio: 1.02

ACCGCGA
switch fluorescence ratio: 2.31

ACCAAGTT
switch fluorescence ratio: 0.957

GATGGAGGTC
switch fluorescence ratio: 1.01

TCACGGCCTC
switch fluorescence ratio: 1.04

TGTCGGGTTG
switch fluorescence ratio: 0.942

TGGAACCCTT
switch fluorescence ratio: 0.999

ATGGTGGTCA
switch fluorescence ratio: 1.02

TACCTGGAAA
switch fluorescence ratio: 1.04

GGAAAGACCC
switch fluorescence ratio: 1

GGCGAGTGAT
switch fluorescence ratio: 1.02

CAATAACAGG
switch fluorescence ratio: 1.07

AGTCGCACCA
switch fluorescence ratio: 1.02

ATAGGAAGAG
switch fluorescence ratio: 0.985

GGTCGCATA
switch fluorescence ratio: 0.974

TTTCGACGAA
switch fluorescence ratio: 1

GCTACCCGGT
switch fluorescence ratio: 1.14

TTTGCAGATC
switch fluorescence ratio: 1.13

CCTCTCTGG
switch fluorescence ratio: 1.07

GCGTCCAGGC
switch fluorescence ratio: 0.974

TACCGAAATT
switch fluorescence ratio: 0.992

ATCGGAAGGC
switch fluorescence ratio: 1.18

AAAGAGGCGT
switch fluorescence ratio: 1

AGATACTGCG
switch fluorescence ratio: 1.06

GGTGAAATCG
switch fluorescence ratio: 0.936

TCAGCGCGTC
switch fluorescence ratio: 1.38

ACCGAGACCC
switch fluorescence ratio: 1.08

GTGAGAGTTT
switch fluorescence ratio: 1.04

AGTCTTAAAA
switch fluorescence ratio: 0.961

GATGATGTGG
switch fluorescence ratio: 1

GGGTGTGTGA
switch fluorescence ratio: 1.02

GTTTTCGTGT
switch fluorescence ratio: 0.992

GACGCTTGTG
switch fluorescence ratio: 1.05

AGTGAGGAGC
switch fluorescence ratio: 0.998

TGGGTTCCA
switch fluorescence ratio: 0.99

TTTAGGCCCG
switch fluorescence ratio: 1.05

TCAACTAGTT
switch fluorescence ratio: 0.943

TTGCTTGGCA
switch fluorescence ratio: 0.984

TAGCCTTCGA
switch fluorescence ratio: 1.07

GACGGAGTGT
switch fluorescence ratio: 1.03

CCTTTGAGGG
switch fluorescence ratio: 1.03

GCGACCGGAA
switch fluorescence ratio: 2.58

GTATACGGGC
switch fluorescence ratio: 0.986

CTAGCTGTTG
switch fluorescence ratio: 1

AAAATCTGTA
switch fluorescence ratio: 0.926

TAGATCGGGC
switch fluorescence ratio: 0.976

TCAATTAAAG
switch fluorescence ratio: 1.03

AAGAGGGGC
switch fluorescence ratio: 0.906

CAAGATGGCA
switch fluorescence ratio: 1.19

CTGATTATGG
switch fluorescence ratio: 0.967

CGGACGGTAC
switch fluorescence ratio: 3.69

GCGGGCGGGT
switch fluorescence ratio: 0.998

ACGGGGTGGC
switch fluorescence ratio: 1

GCTTGAATCC
switch fluorescence ratio: 0.974

CTGGAACGAG
switch fluorescence ratio: 1

CGTCATCGG
switch fluorescence ratio: 1.09

TTTTGCTTCC
switch fluorescence ratio: 1.93

ACACTTTACC
switch fluorescence ratio: 1.43

TTGGCTCATG
switch fluorescence ratio: 1

GTTCCAGCTG
switch fluorescence ratio: 0.965

AAGGGTTACA
switch fluorescence ratio: 0.991

CAGAATGAAT
switch fluorescence ratio: 1.11

ATAAATGAA
switch fluorescence ratio: 1.01

ATTAGGTGCT
switch fluorescence ratio: 1.12

CGTGCTCTCT
switch fluorescence ratio: 1.02

TTTAGTCTT
switch fluorescence ratio: 1.01

CTCCCAACGG
switch fluorescence ratio: 1.3

TGAAGCCTGT
switch fluorescence ratio: 0.987

GCTGAGAAGA
switch fluorescence ratio: 0.973

TTACGTTCCC
switch fluorescence ratio: 1.72

AGGATTACAT
switch fluorescence ratio: 1.02

GACAATGGGT
switch fluorescence ratio: 0.965

TGTTACTTCG
switch fluorescence ratio: 1.57

GACTCCCACG
switch fluorescence ratio: 1.01

AGAATTTGCC
switch fluorescence ratio: 1.02
